According to article PMC6919601, “Identification of Plasmodium dipeptidyl aminopeptidase allosteric inhibitors by high throughput screening” (PLoS ONE, 2019):
The whole screen tested about 110,000 compounds, of which about 230 (0.21%) showed an effect of 50% or more. The list shows a part of the results.

What follows are compounds tested against DPAP1 (Plasmodium falciparum, UniProt Q8IIJ9) (assay: primary screen, percent inhibition; read by cleavage of a fluorogenic dipeptide substrate; higher = more effect of the substance).
DPAP1, sequence (Q8IIJ9 whole entry, looked up): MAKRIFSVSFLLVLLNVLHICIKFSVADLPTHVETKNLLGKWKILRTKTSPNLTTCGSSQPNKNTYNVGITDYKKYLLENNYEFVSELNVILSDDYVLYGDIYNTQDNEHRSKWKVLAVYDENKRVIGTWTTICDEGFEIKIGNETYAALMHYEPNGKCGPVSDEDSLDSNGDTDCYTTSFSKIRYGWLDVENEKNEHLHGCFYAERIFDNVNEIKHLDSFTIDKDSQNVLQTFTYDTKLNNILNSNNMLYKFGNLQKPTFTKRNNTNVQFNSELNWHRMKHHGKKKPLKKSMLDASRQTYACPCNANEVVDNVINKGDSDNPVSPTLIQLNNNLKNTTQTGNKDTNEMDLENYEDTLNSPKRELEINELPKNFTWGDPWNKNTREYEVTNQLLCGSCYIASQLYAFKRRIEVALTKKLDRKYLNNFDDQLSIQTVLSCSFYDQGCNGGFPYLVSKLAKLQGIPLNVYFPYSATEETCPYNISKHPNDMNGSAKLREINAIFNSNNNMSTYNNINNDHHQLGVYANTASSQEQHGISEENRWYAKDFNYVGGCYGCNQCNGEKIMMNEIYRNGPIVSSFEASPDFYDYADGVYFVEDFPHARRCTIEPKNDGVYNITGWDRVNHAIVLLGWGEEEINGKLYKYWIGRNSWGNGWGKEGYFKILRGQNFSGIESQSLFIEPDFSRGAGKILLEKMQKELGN
Parameters: species or system P. falciparum D10 trophozoite lysates; single well
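Further: 30 min substrate incubation versus DMSO and 10 µM JCP410 controls.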

Compound	% Inhibition @ 10 uM
Cc1c(Br)c(C(F)(F)F)nn1CC(=O)Nc1sc2c(c1C(N)=O)CCCC2	-3.13%
O=C(CSc1nc(-c2cccs2)cc(C(F)(F)F)n1)NCc1cccnc1	3.04%
CCOc1cc(C(=O)N2CCCC2)cc(OCC)c1OCC	-1.89%
CCOc1ccccc1N1CCN(C(=O)c2ccccc2Br)CC1	3.32%
Cc1nc2scc(C)n2c(=O)c1S(=O)(=O)NC1CCN(Cc2ccccc2)CC1	-3.32%
CCc1nnc(NC(=O)CSc2nc(-c3cccs3)nc3c2c(=O)n(C)c(=O)n3C)s1	2.34%
COc1ccc(CSc2nnc3nc(C)cc(C)n23)cc1	-3.4%
CCCN1Cc2cccc(C(=O)NCc3ccc4c(c3)OCO4)c2C1=O	-6.06%
CC1CN(C(=O)c2ccccc2Oc2ccccc2)CC(C)O1 (centres unmarked)	6.12%
COC(=O)c1nonc1-n1cccc1C=O	3.04%
COc1ccccc1NC(=O)C1=C(C)N=C2CCCC(O)=C2C1c1ccccc1OC(C)C (centres unmarked)	2.51%
CCCCOc1ccc(S(=O)(=O)N2CCC(C)CC2)cc1	0.162%
Cc1ccc(OCC(O)Cn2c(CO)nc3ccccc32)cc1 (centres unmarked)	-3.41%
CCCN(CCO)CC(c1ccccc1)c1ccccc1	6.68%
O=C(c1ccc(S(=O)(=O)N2CCCCCC2)cc1)N1CCN(c2ccccc2F)CC1	2.49%
CC(C)Oc1ccc(C2N3CC4(C)CN2CC(C)(C3)C4)cc1 (centres unmarked)	-0.0735%
CC(C)C[C@H](NC(=O)OCc1ccccc1)C(=O)N[C@H]1CCCN(C(=O)OC(C)(C)C)C1O (some centres unmarked)	-1.82%
CC(C)/N=C(\NS(=O)(=O)c1ccc(Cl)cc1)c1ccccc1	-0.0267%
O=C(CN1C(=O)c2ccccc2C1=O)Nc1ccccc1Cl	-6.82%
CCCN1CCN(CCCNC(=O)CN2N=C(c3ccc(C)cc3)CCC2=O)CC1	0.514%
CCOC(=O)c1c(C)[nH]c(C)c1S(=O)(=O)NCC(=O)Nc1nc2ccc(Cl)cc2s1	-4.93%
CC(C)C[C@H](NC(=O)OCc1ccccc1)C(=O)N[C@H](C#N)CCCCNC(=O)OC(C)(C)C	-6.46%
CCOC(=O)c1[nH]nc2c1C(=O)N(CC)C2=O	4.96%
CN1C(=O)NC(=O)/C(=C\c2cc(Br)c(OCC(=O)O)c(Br)c2)C1=O	-2.26%
COc1ccc(CN2CCN(Cc3ccccc3F)CC2)cc1	-7.76%

Compound	% Inhibition @ 10 uM
CC1(C)CC2=Nc3ccccc3N(C(=O)C3CC3)C(c3cccs3)C2=C(O)C1 (centres unmarked)	0.851%
O=S(=O)(NCC1CCN(Cc2ccccc2F)CC1)c1ccc(-c2ccc(O)nn2)s1	-0.658%
CCCCOc1ccc(C2=N/C(=C/c3ccccc3F)C(=O)O2)cc1	-6.06%
Cc1c(C(=O)N2CCCC2)oc2c1-c1nn(Cc3ccccc3Cl)cc1CC2	4.85%
CN(CC(=O)NC1CCCCC1)S(=O)(=O)c1ccc2[nH]c(-c3ccccc3)nc2c1	3.84%
Cc1ccc2cnn(CC(=O)NC(C)CCc3ccccc3)c2c1 (centres unmarked)	-2.88%
Cc1nn2c(N)cc(-c3ccccc3)nc2c1-c1ccccc1	6.81%
CCN(CC)CCNC(=O)C(c1ccccc1)N1Cc2ccccc2C1=O (centres unmarked)	2.71%
CC(=O)C1=C(C)OC(N)=C(C#N)C1c1cccc(Cl)c1Cl (centres unmarked)	1.96%
O=C(NCCO)c1cc(C(=O)NCCO)cc(C(=O)NCCO)c1	-5.36%
CC1(C)CC2=Nc3ccccc3NC(c3ccccc3C(=O)O)C2=C(O)C1 (centres unmarked)	-3.5%
COc1ccc(C2C(C(=O)c3ccc(Br)cc3)=C(O)C(=O)N2c2cccnc2)cc1OC (centres unmarked)	-11.4%
Cn1c(=O)[nH]c(=O)c2c1nc(NCCCO)n2CC(O)COc1ccc(Cl)cc1 (centres unmarked)	-0.053%
CCN(CC)C(=O)c1ccc(N/C=C2/C(=O)NC(=O)N(c3cccc(C)c3)C2=O)cc1	0.121%
COC(=O)C1=CN(Cc2ccc(Cl)cc2)C=C(C(=O)OC)C1c1cc(Cl)c(O)c(OC)c1	-1.48%
CCOC(=O)c1c(C)n(CCO)c2ccc(O)cc12	3.05%
Cn1cc(Br)c(C(=O)NCc2cc3ccccc3[nH]2)n1	-7.9%
O=C(NC1CCN(Cc2ccccc2)CC1)c1cccc(Cl)c1	3.05%
Cc1ccc(CCNCc2ccc(C(=O)O)s2)cc1	-7.93%
O=C1OC(c2ccccc2F)=N/C1=C\C(Br)=C\c1ccccc1	-0.265%
CCn1c2ccccc2c2cc(CNCCSc3nnnn3C)ccc21	-5.33%
CCCN1C/C(=C\c2cccc(OC)c2OC)C2=NN(C(C)=O)C(c3cccc(OC)c3OC)C2C1 (centres unmarked)	2.94%
O=C1NC(=S)S/C1=C/c1cc(Br)c(Br)o1	2.4%
COc1cc(C2C3=C(O)CC(C)(C)CC3=NC(C)=C2C(=O)Nc2ccccc2OC)ccc1O (centres unmarked)	-2.68%
Cc1cc(=O)n2nc(N3CCCC(C(=O)N4CCCCCC4)C3)sc2n1 (centres unmarked)	-7.54%

Compound	% Inhibition @ 10 uM
CCOC(=O)c1cnn(Cc2cccc(Cl)c2)c1C	1.76%
O=C(O)c1ccc(C(=O)O)c(-c2ccccc2)c1	-1.77%
CSc1ccc(-c2nnn(CC(=O)Nc3nn(-c4ccccc4)nc3C(N)=O)n2)cc1	2.7%
CCn1cc(C(=O)NCc2ccco2)c2cc(OC)c(OC)cc2c1=O	-0.972%
Cc1nnc(SCc2c(F)cccc2Cl)c2cc3occc3n12	-14.1%
O=C(CCCn1c2ccccc2c2cnnc(O)c21)NC1CCCCCC1	-3.79%
COc1ccc(-n2c3c(c(=O)[nH]c2=O)C(C(F)(F)F)(C(F)(F)F)NC(C)=N3)cc1	-4.97%
Cc1cc(SCc2ccc(Cl)c(Cl)c2)n2nc(C)nc2n1	-2.19%
CC1=C(C(=O)Nc2nccs2)C2(CCCCCC2)OC1=O	3.96%
COC(=O)c1cc2sc(Cl)cc2n1Cc1ccc(C)cc1	-9.48%
Cn1c(=O)c2c(-c3ccc(C(C)(C)C)cc3)n(-c3cccc(C#N)c3)cc2n(C)c1=O	-3.12%
CCCC(=O)NCCc1nc2ccccc2[nH]1	-0.0235%
COc1ccccc1CNS(=O)(=O)c1cccc2cccnc12	-9.81%
CC(=O)c1ccc2oc(C(=O)O)cc(=O)c2c1	-0.636%
O=C(CCc1ccccc1)Nc1ccc(S(=O)(=O)Nc2ccc(F)cc2)cc1	-0.173%
O=C(CNS(=O)(=O)c1cccs1)NCCc1ccc(Cl)cc1	-5.51%
CCOc1ccc(C2NC(S)=NC3=C2CCc2ccccc23)cc1 (centres unmarked)	1.97%
COC(=O)C1=C(C)N=C2SCCC(=O)N2C1c1ccc(C(C)C)cc1 (centres unmarked)	-4.93%
Cc1ccc(CNC(=O)CCc2c(C)nc3cc(-c4ccccc4)nn3c2C)cc1	1.26%
O=C(NCC1CCCO1)c1ccc(N2C(=O)C3C4CCC(C4)C3C2=O)cc1 (centres unmarked)	4.25%
COc1ccc2ccccc2c1C1C(C(C)=O)=C(C)N=c2s/c(=C/c3ccco3)c(=O)n21 (centres unmarked)	-0.736%
Cc1cc2c(n1-c1ccc(C(N)=O)cc1)CC(C)(C)CC2=O	3.65%
COc1cccc(-c2nc3cc(Cl)cnc3[nH]2)c1O	-3.63%
COc1cc(CN(C)C2CCN(C)CC2)cc(OC)c1	2.26%
CCOC(=O)c1cnn2c(C(F)(F)F)cc(-c3ccc(OC)cc3)nc12	7.63%

Compound	% Inhibition @ 10 uM
CC(C)(C)C(=O)Nc1c(Cl)sc2nccc(=O)n12	4.41%
O=c1oc2ccc3ccccc3c2cc1-c1nc(-c2ccc3c(c2)OCO3)no1	0.0147%
CC(C)(C)c1[nH]nc2c1C(c1cccc(Cl)c1)C(C#N)=C(N)O2 (centres unmarked)	2.7%
Cc1ccc2c(CNCC(C)c3ccccc3)c(C(=O)O)n(Cc3ccccc3F)c2c1 (centres unmarked)	0.889%
CC1CN(S(=O)(=O)c2ccc(C(=O)N3CCC(C(N)=O)(N4CCCCC4)CC3)cc2)CC(C)O1 (centres unmarked)	3.77%
CC(=O)c1cnc2cc(-c3ccc(C)cc3)nn2c1C	3.15%
CCOc1ccccc1C(=O)Nc1ccc(CC#N)cc1	-1.52%
Cc1nn(C)c(C)c1CN(C)C(=O)c1cc2n(n1)C(C(F)(F)F)CC(c1cccs1)N2 (centres unmarked)	-3.76%
COC(=O)C1=C(C)N(Cc2ccco2)C(=O)/C1=C\c1ccc(C(=O)O)cc1	3.72%
CCN(CC)c1ccc(NS(=O)(=O)c2ccc(OC)cc2)cc1	0.389%
Cc1ccccc1-c1ccc(C(=O)N[C@@H](CC(C)C)C(=O)NCC#N)cc1	-3.04%
CCC(=O)Nc1c2c(nc3c1CCC3)CCCC2	5.59%
COc1ccc(-c2csc(NC(=O)c3cccc4ccccc34)c2C(=O)O)cc1	6.52%
O=C(Cc1ccccc1)NCc1nnc(S)n1-c1cccc(C(F)(F)F)c1	6.51%
COc1cccc(S(=O)(=O)NCc2ccc(C(=O)N3CCN(c4ccccc4F)CC3)cc2)c1	0.214%
COc1ccc(OC)c(C2=NOC(C(=O)N3CCCC3)C2)c1 (centres unmarked)	-0.431%
COc1ccc(C(=N)NOC(=O)CCCc2ccccc2)cc1OC	-1.47%
CC1=NC(=S)NC(c2ccc(Cl)cc2)/C1=C(/O)OC(C)C (centres unmarked)	-6.6%
Cc1cc(C)nc(SCC(O)COC(C)C)n1 (centres unmarked)	1.87%
C=CCN1C(=O)/C(=C\c2cc(C)n(-c3ccccc3)c2C)C(C(=O)OC)=C1C	-4.93%
COc1cc2nc(S)nc(NCCCN3CCCCC3C)c2cc1OC (centres unmarked)	-2.83%
CCCn1c2ccccc2c2cnnc(O)c21	-3.31%
COc1ccc(CN(C)C2CCCCC2)cc1C	-1.86%
